The campaign covered roughly 310,000 compounds. About 2,200 (0.71%) showed an effect of 50% or more. Effects have a minus sign here. The list shows a part of the results.
The molecules below were run against human ether-à-go-go-related gene (hERG) potassium channel (human, UniProt Q12809) (assay: primary screen, population patch clamp on CHO cells stably expressing hERG).
human ether-à-go-go-related gene (hERG) potassium channel, sequence (Q12809 whole entry, looked up): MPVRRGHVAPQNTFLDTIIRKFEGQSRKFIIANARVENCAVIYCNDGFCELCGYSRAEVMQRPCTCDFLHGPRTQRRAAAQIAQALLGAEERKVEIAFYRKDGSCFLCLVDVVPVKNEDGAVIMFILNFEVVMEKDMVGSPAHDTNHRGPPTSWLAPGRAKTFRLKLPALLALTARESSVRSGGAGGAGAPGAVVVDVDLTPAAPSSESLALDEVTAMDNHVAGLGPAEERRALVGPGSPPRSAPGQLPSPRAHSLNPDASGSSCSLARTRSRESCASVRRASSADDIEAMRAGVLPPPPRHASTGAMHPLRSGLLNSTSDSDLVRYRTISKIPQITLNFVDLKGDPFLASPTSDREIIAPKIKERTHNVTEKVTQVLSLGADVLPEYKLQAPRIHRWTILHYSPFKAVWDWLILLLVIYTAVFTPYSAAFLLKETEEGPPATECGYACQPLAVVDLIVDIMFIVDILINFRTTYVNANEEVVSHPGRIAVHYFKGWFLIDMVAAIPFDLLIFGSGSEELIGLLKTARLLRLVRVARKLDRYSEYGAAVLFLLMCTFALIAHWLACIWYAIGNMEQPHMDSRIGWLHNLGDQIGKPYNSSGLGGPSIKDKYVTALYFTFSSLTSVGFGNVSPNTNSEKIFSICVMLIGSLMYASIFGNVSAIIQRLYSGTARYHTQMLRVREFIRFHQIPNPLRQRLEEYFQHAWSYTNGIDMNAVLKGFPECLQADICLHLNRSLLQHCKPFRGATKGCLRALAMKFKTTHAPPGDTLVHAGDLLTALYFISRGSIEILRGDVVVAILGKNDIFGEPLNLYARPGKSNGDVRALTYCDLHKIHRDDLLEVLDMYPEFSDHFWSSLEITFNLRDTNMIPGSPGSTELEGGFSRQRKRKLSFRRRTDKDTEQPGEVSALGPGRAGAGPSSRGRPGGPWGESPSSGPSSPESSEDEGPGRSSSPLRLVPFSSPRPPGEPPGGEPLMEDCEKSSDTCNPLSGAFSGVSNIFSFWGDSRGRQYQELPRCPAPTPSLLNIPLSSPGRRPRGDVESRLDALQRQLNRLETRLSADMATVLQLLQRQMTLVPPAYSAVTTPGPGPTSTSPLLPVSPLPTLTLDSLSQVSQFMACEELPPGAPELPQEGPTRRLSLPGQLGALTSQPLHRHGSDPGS

| Structure (SMILES) | hERG current change (%, negative = inhibition) at 1uM [%] |
| --- | --- |
| Cc1cccc(-n2ncc3c(=O)[nH]c(SCC(=O)N4CC(=O)Nc5ccccc54)nc32)c1 | 14.6 |
| CC(C)OC(=O)CSc1nc(-c2ccc(F)cc2)nc2ccc(F)cc12 | 4.59 |
| COc1ccc(C(C(=O)NC(C)(C)C)N(CCc2ccccc2)C(=O)CCC(=O)Nc2cc(C)on2)cc1 (stereo not shown) | -9.67 |
| CCc1ccc(NC(=O)Cn2cc([N+](=O)[O-])nc2C)cc1 | 14.1 |
| COC(=O)c1ccccc1NC(=S)N(Cc1ccc2c(c1)OCO2)Cc1cc2cc(C)ccc2[nH]c1=O | 10.6 |
| CN1CC(=O)N(CC(=O)Nc2ccc(N3CCOCC3)cc2)C1=O | 7.8 |
| CCCOc1ccc(C2c3c(oc4cc(C)c(C)cc4c3=O)C(=O)N2CCCN2CCOCC2)cc1 (stereo not shown) | 7.1 |
| COc1ccccc1N(CC(=O)Nc1cccnc1)S(C)(=O)=O | 14.3 |
| CCN(CC)CCn1c(=S)[nH]c2cc3c(cc2c1=O)OCO3 | -6.43 |
| CN(C)CCOC(=O)/C(=C/c1cn(C)c2ccccc12)NC(=O)c1ccccc1 | 10.5 |
| Cn1c(NC(=O)/C=C\c2ccccc2)cc(=O)n(C)c1=O | 7.76 |
| Cn1c(=O)[nH]c2sc3c(c2c1=O)CC(C)(C)OC3 | -7.97 |
| O=C(c1ccccc1NS(=O)(=O)c1ccc(F)cc1)N1CCCC1 | -6.03 |
| CCCC(c1nnnn1CS(=O)(=O)c1ccc(C)cc1)N1CCN(c2ccccc2)CC1 (stereo not shown) | 8.22 |
| CN1C(C(=O)Nc2cccc(O)c2)=CC(c2ccco2)=NS1(=O)=O | 7.8 |
| CCn1c(CNc2ccc(OC)cc2)nnc1SCC(=O)c1ccc(OC)cc1 | -2.83 |
| CCN(CCn1cccn1)C(=O)c1ccc(OC2CCN(C(=O)COC)CC2)cc1 | 11.4 |
| O=C(COc1ccc(S(=O)(=O)NCCc2ccccc2)cc1)N1CCCC1 | 5.8 |
| O=C1OC(CC(=O)N(Cc2nnc(-c3ccccc3Cl)o2)C2CC2)c2ccccc21 (stereo not shown) | 15.1 |
| C/C(=N\NC(=O)c1ccccc1)c1ccc(-n2ccnc2)cc1 | 8.54 |
| CC(=O)c1ccc(NC(=O)C2CCCO2)cc1 (stereo not shown) | 13.3 |
| CCc1nnc(NC(=O)CCC(=O)NCCc2ccc(OC)c(OC)c2)s1 | 18.4 |

| Structure (SMILES) | hERG current change (%, negative = inhibition) at 1uM [%] |
| --- | --- |
| CCC(O)c1nc2ccccc2n1CCc1ccccc1 (stereo not shown) | 6.15 |
| COc1ccc([N+](=O)[O-])cc1NC(=O)CSCc1ccc(Br)cc1 | 1.65 |
| C=CCNC(=S)NNC(=O)c1cccn(Cc2ccc(Cl)cc2Cl)c1=O | 7.44 |
| CC1(C)CC(NC(=S)Nc2ccc(S(N)(=O)=O)cc2)CC(C)(C)N1 | 15.5 |
| CCN(CC)CCNC(=O)c1c(O)c2cc(OC)c(OC)cc2[nH]c1=O.Cl | 9.48 |
| CCOC(=O)C1=C(C)N(c2ccc(Cl)cc2)C(=O)NC1c1cccc([N+](=O)[O-])c1 (stereo not shown) | -7.59 |
| COc1ccccc1NC(=O)COC(=O)C1CC2C=CC1C2 (stereo not shown) | 7.92 |
| COc1ccc(S(=O)(=O)N2CCCCC2)cc1NS(=O)(=O)c1ccccc1F | 4.42 |
| COc1ccc(CN(CC(=O)NC2CCCC2)C(=O)c2csnn2)cc1 | 3.85 |
| CC(C)[C@H](NC(=O)c1ccccc1Cl)C(=O)OCc1cc(=O)n2cc(Br)ccc2n1 | -6.52 |
| CCOc1nc(NC(=O)NS(=O)(=O)Oc2ccccc2Cl)nc(-c2ccccc2)n1 | 3.9 |
| CCc1nonc1NC(=O)COc1cc(C)c(Cl)c(C)c1 | 11.4 |
| CCCCOC(=O)C1CCCC(C)N1.Cl (stereo not shown) | 16.6 |
| COc1ccc([N+](=O)[O-])cc1NCC(=O)c1ccc(C)cc1 | 16.4 |
| Cn1c(=O)n(-c2cccc(Cl)c2)c(=O)n1C | 2.58 |
| Cc1ccc(C(C)C)c(OCC(=O)NCC(c2cccs2)N2CCOCC2)c1 (stereo not shown) | -15.3 |
| Cc1c(NC(=O)COC(=O)/C=C/c2ccc(Cl)cc2)c(=O)n(-c2ccccc2)n1C | 9.08 |
| O=C(Nc1cccc(NC(=O)c2ccc(F)cc2)c1)c1ccc(F)cc1 | 10.7 |
| O=C(/C=C/c1ccc(O)cc1)c1c(O)cc(O)cc1O | 13.8 |
| C/C(=N\NC(=O)C(=O)Nc1ccc(C)cc1)c1ccncc1 | 1.8 |
| COc1ccc(CN2CCN(Cc3ccc(CO)o3)CC2CCO)cc1C (stereo not shown) | 5 |
| CCOCCCNC(=O)C(NC(=O)c1ccccn1)c1ccc(C)cc1 (stereo not shown) | -0.187 |

| Structure (SMILES) | hERG current change (%, negative = inhibition) at 1uM [%] |
| --- | --- |
| O=C(COC(=O)c1ccc(=O)n(Cc2ccccc2)n1)Nc1ccc2c(c1)OCCO2 | 8.18 |
| Cc1ccc(C=C2C(Cl)=C(Cl)C(Cl)=C2Cl)cc1 | 9.82 |
| COC(=O)C1=C(c2cccc(OCc3ccccc3)c2)C[C@@H]2CC[C@H]1N2C(=O)NCc1cccc(C(F)(F)F)c1 | 19.3 |
| NC(=O)c1cc([N+](=O)[O-])ccc1NCCc1ccccc1 | 14.5 |
| Cc1cccc(COCC(Cc2ccccc2)N2CCN(C(=O)c3cccc(C)c3)CCC2=O)c1 (stereo not shown) | 6.78 |
| Cc1nc2ccccc2n1Cc1ccc(Br)cc1 | 8.25 |
| Cc1ccc(NC(=O)COC(=O)CC2CCCC2)cc1Cl | 9.82 |
| CSc1ncc(Cl)c(C(=O)Nc2ccccc2Cl)n1 | 14.8 |
| CN(C)c1ccc(C(=O)c2ccc(N(C)C)c3ccccc23)cc1 | 11.3 |
| CCCSc1nc(-c2ccccc2)cc(C(F)(F)F)c1C#N | -5.06 |
| CC(C)CNc1nc(N)c([N+](=O)[O-])c(NC2CCCCC2)n1 | 1.91 |
| CC(CNS(=O)(=O)c1ccc(Cl)cc1)n1cncn1 (stereo not shown) | 14.2 |
| COc1cccc(C2CC(C(F)(F)F)n3ncc(C(=O)NC(C)(C)C)c3N2)c1 (stereo not shown) | 14.1 |
| CC1CN(c2ccc(NS(=O)(=O)c3ccccc3)cc2C(=O)O)CC(C)O1 (stereo not shown) | 11 |
| CCc1ccccc1Nc1nc(N)nc(CSc2nnnn2C)n1 | 4.04 |
| CC(C)(C)NC(=O)C(c1ccncc1)N(Cc1cccs1)C(=O)Cn1nnc(-c2cccs2)n1 (stereo not shown) | 9.26 |
| NS(=O)(=O)c1ccc(CCNC(=O)c2cc(=O)[nH]c3ccccc23)cc1 | 7.05 |
| NNC(=O)c1[nH]c(-c2ccccc2)cc1-c1ccccc1 | 21.3 |
| O=c1oc(-c2cccs2)nc2sc3c(c12)CCCC3 | 6.47 |
| CC(=O)N1c2c(cc(Br)cc2S(=O)(=O)NCc2ccc3c(c2)OCO3)CC1C (stereo not shown) | -16 |
| CCC(=O)c1ccc(OCC(O)CN2CCOCC2)cc1 (stereo not shown) | 17.8 |
| COC(=O)[C@H](C)NC(=O)NCc1ccc(F)cc1 | 16.1 |

| Structure (SMILES) | hERG current change (%, negative = inhibition) at 1uM [%] |
| --- | --- |
| O=C(/C=C/c1cccc([N+](=O)[O-])c1)Nc1ccccn1 | 7.42 |
| CCc1nc2ccccc2c(C(=O)NCc2ccc(OC)cc2)c1C | -7.59 |
| CC1(C)C/C(=N\NC(=S)Nc2ccccc2F)c2cc(O)ccc2O1 | 7.57 |
| CCOc1ccc(CCNC(=O)COC(=O)c2oc3ccccc3c2COC)cc1OCC | 7.14 |
| Cc1ccc(C)c(NC(=S)/C(=C(\[O-])c2ccc(Cl)s2)[n+]2ccccc2)c1 | -0.785 |
| COc1cc(C(=O)COC(=O)c2cc([N+](=O)[O-])ccc2N2CCOCC2)ccc1OC(F)F | -16.7 |
| Cc1cc(C(=O)c2cnc(/N=C/N(C)C)s2)c(F)cc1Cl | 2.29 |
| CCN(Cc1ccccc1)C(=O)c1cc2c(OC)c(OC)c(OC)cc2[nH]1 | 6.4 |
| COc1cc(C2N=C(c3ccccc3)NO2)cc(Br)c1O (stereo not shown) | 2.52 |
| Cc1ccc(CNc2nc(Cl)c(C#N)s2)cc1 | 6.64 |
| COc1ccccc1CC(=O)N1CCN(CCc2ccccc2)CC1 | 0.818 |
| O=c1n(-c2ccccc2)c(=O)n(Cc2ccccn2)n1Cc1ccccn1 | 7.69 |
| COc1ccc(C(C)=O)cc1CSc1nnc(Nc2ccccc2)s1 | 16.8 |
| Cc1cc(Nc2cccc(C)c2C)n2ncnc2n1 | 9.74 |
| Cc1nc(C(=O)N(C)C)nn1-c1cc(Cl)cc(Cl)c1 | 11.5 |
| COc1ccc(C(=O)N/C(=C\c2cn(C)c3ccccc23)C(=O)N2CCN(C)CC2)cc1 | 10.2 |
| COCCN=c1scc(-c2cc(OC)c(OC)c(OC)c2)n1/N=C/c1c(C)[nH]c2ccccc12 | 6.44 |
| O=C(OCc1nc2ccc(Cl)cc2n1CCO)c1ccccc1 | 8.43 |
| Br.CCOC(=O)/C(C)=N/Nc1nc(-c2ccc(NC(C)=O)cc2)cs1 | 10 |
| O=C(Cc1cccs1)Nc1nc(-c2ccccc2)cs1 | -1.23 |
| CC(C)(C)NC(=O)NC(=O)CN1CCN(S(=O)(=O)c2ccc3c(c2)CCCC3)CC1 | 12.6 |
| CCOc1nc(-c2ccccc2)ncc1Oc1ccccc1 | 18.6 |
